# According to the RNAGym collection of RNA variant scans (doi:10.7554/elife.90254):
# Read counts are not given, so values of variants with three or more changes are uncertain.
# B1: OR4K15 (parent)
# chain: GUUAACGGUCAUAGGCCAUGGAAACUAGGAGCACCAUUUCGCUGCCAGUGAAGAAAUGAACAAAGAAAAUCUGGGCCAGGCAGGCAUCAAAAGAAAUAGUCUUGCGCUCAACCAGAAAGUCUGUAAUCAUUUUAAGGGUA
# Variants of: B1
# Test: self-cleavage, relative activity (ratio to wild type); higher = more cleavage; in vitro, sequencing; the parent is a self-cleaving ribozyme
row,Variant,self-cleavage
1,A116G G123A U130C,0.73
2,A116G U120C A140U,0.17
3,U108C A111G A135G G137A,0.01
4,G104A A110G U132C U133A,0.01
5,A117G U124C U131C,1.5
6,U108A A117G A129G,0
7,A110G U131C A134C,0.05
8,U103C A117C A125G,0.12
9,C112G U120C A135U,0.02
10,A114U A117G U130C,0.03
11,U103C A111G A118G,0.01
12,U103C U133C U139G,1.57
13,A114G A117G G137U,0.62
14,A116G U127C U132C,0.09
15,U131C U132C A140G,0.14
16,U120G A129G U132C,2.53
17,A111U U120C A140G,0.04
18,A111G A116G U131C,0
19,U108C U132C U139C,0
20,C105U A114G A118G U133C,0.01

row,Variant,self-cleavage
1,U103C A117G U132A U139C,0.88
2,A118G U127C U131C,0.76
3,A114U U122C A129C,0.04
4,A110G A116G A118G,0.02
5,G106C U108G A110U,0.01
6,A111U C113U C121A,0.06
7,A117U A118G U132C,1.08
8,A110G A117C A134G,0.06
9,A110U A111G A126G,0
10,U120A U124C U130A U133C,1.08
11,C107G U122C U127C,0.01
12,U108C A116G A129G,0
13,U103C A111U U122A,0.07
14,A111G A117G U132C,0.01
15,A110U U122C U131A,0.49
16,A117G A126G U131C,0.48
17,A111G A118G C121A,0.01
18,U120C A126C A140G,0.21
19,U122C U127C U139C,1.13
20,G106A A111G U120A,0.01

row,Variant,self-cleavage
1,U120C U127C A134G,1.42
2,G119A U127C U130C,0.5
3,A110G U122C A126C,0.04
4,A111G U122C A134C,0.07
5,U124C U132C A140G,1.13
6,A110G U120C A125G,0.1
7,G115U A117G U132C,0.05
8,A118G U122C U131C,0.86
9,G119C U120C A125U,1.2
10,A114U A125G U133G,0
11,A111U U127C U133C,0.09
12,U108C A111U A117G U122C,0
13,G115A A116G A118G G123A,0.01
14,A117G U120G A129G A140G,1.42
15,A116U U127C U139C,0.15
16,U108C A110C U139A,0.01
17,C113A U122C U130C U131C,0.01
18,A110U A126U U127C,0.5
19,A117G U122C A135U U139A,0.99
